According to PubChem BioAssay AID1347120 (National Center for Advancing Translational Sciences (NCATS), 2019):
Among all 390,000 compounds or so, about 930 (0.24%) were called active. Inconclusive means that the source gave no clear call. Such entries were picked first, then a sample of the others. The call rests on the fitted dose curve; in most records, active means well fitted activation curve with a large enough effect; inconclusive means small, poorly fitted or top-dose-only effect; inactive means no such curve, though single readings can be large or run the other way. A potency beside an inconclusive call is a rough fit, not a confirmed value.

experiment: qHTS for Suppressors of FUS Proteinopathy: Primary screen using FUS-linked yeast assay; further: nearly all actives have a fitted effect of over 55% in size; settings: S. cerevisiae FUS-expressing, OD600, 24 h; Potency: growth rescue; series mostly up to 76.6 µM
Procedure, shortened: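 Galactose (2%) drives FUS expression in yeast precultured in raffinose; seeding density OD 0.005. Test compounds incubated 24hr at 30C and 99% humidity before absorbance at 600 nm was measured.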
Potency means the concentration at half of the fitted maximal effect; tags describe the fitted curve by direction and shape.

| SMILES | Potency |
| --- | --- |
| CCC(Sc1nc(C)cc(C)n1)C(=O)O (configuration not stated) | inactive |
| COc1ccc2c(c1)cc(CNc1ccc(OC)c(OC)c1)c(=O)n2CC(=O)Nc1ccc(F)cc1 | inactive |
| CC(=O)Nc1c(-c2ccc(F)cc2)nc2ncccn12 | inactive |
| CN(CC(=O)Nc1cccc(Cl)c1)S(=O)(=O)c1ccc2[nH]c3c(c2c1)CCCC3 | inactive |
| COc1ccc(CNC(=O)Cn2c(=O)oc3cc(S(=O)(=O)N4CCCCCC4)ccc32)cc1 | inconclusive: 31.6 µM [activator, single point] |
| CCOC(=O)C(C)N1N=C(/C=C/c2ccc(C)cc2)CCC1=O (configuration not stated) | inconclusive: 50.1 µM [activator, partial curve, poor fit] |
| COc1ccc(N2CCN(C(=O)CCc3c(C)nc4c(-c5ccccc5)c(C)nn4c3C)CC2)cc1 | inconclusive: 2.82 µM [activator, full curve] |
| CN(Cc1ccc(OC(F)F)cc1)C(=O)/C=C/c1ccc(S(=O)(=O)N2CCOCC2)cc1 | inconclusive: 22.4 µM [activator, partial curve] |
| CC(C)C(=O)Nc1ccc(C(=O)N/N=C/C2CC3C=CC2C3)cc1 (configuration not stated) | inconclusive: 35.5 µM [activator, single point] |
| COc1ccc(-c2nn(-c3ccccc3)cc2C(=O)N2CCN(S(=O)(=O)c3ccccc3[N+](=O)[O-])CC2)cc1 | inconclusive: 20 µM [activator, single point] |
| CCOc1ccc(CCN2C(=S)N([C@@H](CC(C)C)CN3CCC[C@@H]3CN3C(=S)NC[C@@H]3CC(C)C)C[C@@H]2CC(C)C)cc1 | inconclusive: 10 µM [activator, partial curve] |
| COc1ccc(NC(=O)c2cc(-c3ccccc3)nc3c2cnn3C(C)C)cc1 | inactive |
| C#CCOCCOCCOCCNc1nc(N2CCN(C(=O)CCCCCCCCCCNC(=O)[C@@H]([C@H](C)O)n3cc(C)nn3)CC2)nc(N2CCN(C(=O)CCCCCCCCCCNC(=O)[C@@H]([C@H](C)O)n3cc(C)nn3)CC2)n1 | inconclusive: 12.6 µM [activator, partial curve] |
| COc1ccc(-n2c(COc3ccccc3)nnc2SCC(=O)Nc2ccccc2-c2ccccc2)cc1 | inconclusive: 20 µM [activator, partial curve, poor fit] |
| O=C(Cn1ccn(-c2cccc(Cl)c2)c(=O)c1=O)NCCc1ccccc1 | inactive |
| CN(C(=O)CSc1nc(O)cc(=O)n1C1CCCC1)c1ccccc1 | inconclusive: 31.6 µM [activator, partial curve, poor fit] |
| CCN1C(=O)[C@H]2[C@@H](c3ccc(-c4cccc(Cl)c4)cc3)N3CCCC[C@@]3(C(=O)OC)[C@H]2C1=O | inconclusive: 20 µM [activator, single point] |
